The other results are listed elsewhere or left out.
Tests used:
[1] = tested on: HSkMC (human skeletal muscle cells); experiment: cytotoxicity call (relative viability < 0.9); conditions: 10 µM
[2] = tested on: HepG2; experiment: cytotoxicity call (relative viability < 0.9); conditions: 10 µM
[3] = tested on: S. aureus RN4220; experiment: growth inhibition call (relative growth <= 0.2); conditions: 50 µM

| Compound | cytotoxicity call [1] | cytotoxicity call [2] | growth inhibition call [3] |
| --- | --- | --- | --- |
| C[C@@H]1CCCCO[C@@H](CN(C)S(=O)(=O)c2ccc(Cl)cc2)[C@H](C)CN([C@@H](C)CO)C(=O)c2cc(NC(=O)Cc3ccccc3)ccc2O1 | inactive | inactive | inactive |
| COc1ccc(CN(C)C[C@@H]2Oc3ccc(NC(=O)C4CC4)cc3CC(=O)N([C@H](C)CO)C[C@@H]2C)cc1 | inactive | inactive | inactive |
| C[C@@H]1CCCCO[C@@H](CN(C)C(=O)Nc2ccc(F)cc2)[C@@H](C)CN([C@@H](C)CO)C(=O)c2cc(NC(=O)CCC(F)(F)F)ccc2O1 | inactive | inactive | inactive |
| CO[C@H]1C[C@@H](C[C@@H](C)[C@H]2CC(=O)[C@@H](C)/C=C(\C)[C@@H](O)[C@@H](OC)C(=O)[C@@H](C)C[C@@H](C)/C=C/C=C/C=C(\C)[C@H](OC)C[C@H]3CC[C@@H](C)[C@@](O)(O3)C(=O)C(=O)N3CCCC[C@@H]3C(=O)O2)CC[C@@H]1OC(=O)C(C)(CO)CO | inactive | inactive | inactive |
| Cc1ccc(S(=O)(=O)Nc2ccc3c(c2)C(=O)N([C@@H](C)CO)C[C@@H](C)[C@H](CN(C)Cc2ccc(-c4ccccc4)cc2)O3)cc1 | inactive | inactive | inactive |
| CC[C@H]1OC(=O)C[C@@H](O)[C@H](C)[C@@H](O[C@@H]2O[C@H](C)[C@@H](O)[C@H](N(C)C)[C@H]2O)[C@@H](CCN2C[C@H](C)C[C@H](C)C2)C[C@@H](C)C(=O)/C=C/C(C)=C/[C@@H]1CO[C@@H]1O[C@H](C)[C@@H](O)[C@@H](OC)[C@H]1OC | inactive | inactive | active |
| COCC#Cc1ccc([C@H]2[C@H]3CN(C(=O)c4cccnc4)CC(=O)N3[C@H]2CO)cc1 | inactive | inactive | inactive |
| CNCC(=O)O | inactive | inactive | inactive |
| C[C@@H]1CCCCO[C@H](CN(C)C(=O)CCC(F)(F)F)[C@@H](C)CN([C@H](C)CO)C(=O)c2cc(NS(=O)(=O)c3cccs3)ccc2O1 | inactive | inactive | inactive |
| Cc1ccccc1S(=O)(=O)N1C[C@@H](O)COC[C@H]2O[C@H](CC(=O)N3CCOCC3)CC[C@@H]21 | inactive | inactive | inactive |
| C[C@@H]1CN([C@H](C)CO)C(=O)c2cc(NC(=O)Cc3ccccc3)ccc2O[C@@H](C)CCCCO[C@H]1CN(C)Cc1ccccc1 | inactive | inactive | inactive |
| C[C@@H]1CN([C@@H](C)CO)C(=O)c2cc(NC(=O)Nc3ccc(C(F)(F)F)cc3)ccc2O[C@H]1CN(C)S(=O)(=O)c1ccc(Cl)cc1 | inactive | active | inactive |
| CN(C)S(=O)(=O)c1ccc2c(c1)CCN2 | inactive | inactive | inactive |
| CCC(=O)N1C[C@]2(C1)CN([C@@H](CO)c1[nH]c3cc(ccc3c12)OC)C(=O)CN1CCOCC1 | inactive | inactive | inactive |
| NC(=O)c1cc(S(N)(=O)=O)ccc1Cl | inactive | inactive | inactive |
| CCC(=O)c1ccc(Cl)s1 | inactive | inactive | inactive |
| COc1ccc(/C=C/C(=O)O[C@@H]2[C@@H](O)[C@H](C)O[C@@H](O[C@H]3[C@@H]4C=CO[C@@H](O[C@H]5O[C@@H](CO)[C@H](O)[C@@H](O)[C@@H]5O)[C@@H]4[C@@]4(CO)O[C@@H]34)[C@@H]2OC(C)=O)cc1 | inactive | inactive | inactive |
| C[C@H]1CN([C@@H](C)CO)S(=O)(=O)c2ccc(/C=C/c3ccccc3)cc2O[C@@H]1CN(C)C(=O)CN1CCOCC1 | inactive | inactive | inactive |
| CC(C)(CO)NC(=O)C(=O)NC1CC1 | inactive | inactive | inactive |
| Cc1noc(C)c1S(=O)(=O)Nc1ccc2c(c1)C(=O)N([C@@H](C)CO)C[C@@H](C)[C@@H](CN(C)S(=O)(=O)c1cn(C)cn1)OCCCC[C@@H](C)O2 | inactive | inactive | inactive |
| S=c1[nH]nc(C2CCCCC2)[nH]1 | inactive | inactive | inactive |
| CCCCCCCCCCCCCCCC(=O)O[C@@H]1[C@@H](O)[C@@H](O)[C@@H]([C@H](NC(=O)[C@@H]2C[C@@H](CCC)CN2C)[C@H](C)Cl)O[C@@H]1SC | inactive | inactive | inactive |
| C[C@H](CO)N1C[C@H](C)[C@@H](CN(C)CC2CC2)Oc2c(NS(=O)(=O)c3ccc(F)cc3)cccc2C1=O | inactive | inactive | inactive |
| C[C@@H]1CCCCO[C@@H](CN(C)CC2CC2)[C@@H](C)CN([C@H](C)CO)C(=O)c2cc(NS(C)(=O)=O)ccc2O1 | inactive | inactive | inactive |
| CN(C)CCN1CCN(C)C2(CCN(C(=O)c3ccn[nH]3)CC2)C1=O | inactive | inactive | inactive |
| C[C@H](CO)N1C[C@H](C)[C@H](CN(C)Cc2ccc(-c3ccccc3)cc2)Oc2ccc(NS(=O)(=O)c3ccccc3)cc2C1=O | inactive | inactive | inactive |
| CC(C)N1C[C@H](C)[C@@H](CN(C)Cc2cccc(Cl)c2)Oc2c(NC(=O)c3ccncc3)cccc2C1=O | inactive | inactive | inactive |

| Compound | cytotoxicity call [1] | cytotoxicity call [2] | growth inhibition call [3] |
| --- | --- | --- | --- |
| Cc1cc2c(cc1C)N[C@@H](CC(N)=O)C(=O)N2 | inactive | inactive | inactive |
| CC(=O)OC(CC(=O)O)[N+](C)(C)C.[Cl-] (centres undefined) | inactive | inactive | inactive |
| C[C@H](CO)N1C[C@H](C)[C@@H](CN(C)C(=O)CCC(F)(F)F)OCCCC[C@H](C)Oc2ccc(NS(=O)(=O)c3ccc(F)cc3)cc2C1=O | inactive | inactive | inactive |
| Cc1noc(C)c1NC(=O)N(C)C[C@H]1Oc2ccc(NS(C)(=O)=O)cc2C(=O)N([C@@H](C)CO)C[C@@H]1C | inactive | inactive | inactive |
| C=CCOC(=O)[C@H]1[C@@H]2C(=O)O[C@@H](c3ccccc3)[C@@H](c3ccccc3)N2[C@@H](c2cccc(OCCOC(=O)NCCCCCC(=O)NO)c2)[C@@]12C(=O)Nc1ccc(I)cc12 | inactive | inactive | inactive |
| COc1ccc(NC(=O)N(C)C[C@@H]2OCCCC[C@H](C)Oc3ccc(NS(=O)(=O)c4c(C)noc4C)cc3C(=O)N([C@H](C)CO)C[C@@H]2C)cc1 | inactive | inactive | inactive |
| C[C@H]1CN([C@@H](C)CO)C(=O)Cc2cc(NC(=O)Cc3ccccc3)ccc2O[C@@H]1CN(C)C(=O)Nc1ccc(C(F)(F)F)cc1 | inactive | inactive | inactive |
| C[C@H](CO)N1C[C@H](C)[C@H](CN(C)C(=O)Nc2ccc(C(F)(F)F)cc2)OCc2cnnn2CCCC1=O | inactive | active | inactive |
| Cc1noc(C)c1S(=O)(=O)Nc1ccc2c(c1)C(=O)N([C@H](C)CO)C[C@@H](C)[C@H](CN(C)Cc1ccc(C(F)(F)F)cc1)OCCCC[C@@H](C)O2 | inactive | inactive | inactive |
| CCS(=O)(=O)N1CC[C@]2(CC1)CN([C@H](CO)c1[nH]c3cc(ccc3c12)OC)S(=O)(=O)c1ccc(cc1)C | inactive | inactive | inactive |
| C[C@@H]1CCCCO[C@H](CN(C)Cc2ccc3c(c2)OCO3)[C@@H](C)CN([C@H](C)CO)C(=O)c2cc(NC(=O)NC3CCCCC3)ccc2O1 | inactive | inactive | inactive |
| COCCOc1ccc(N2CCN(CCn3ncc4c3nc(N)n3nc(-c5ccco5)nc43)CC2)cc1 | inactive | inactive | inactive |
| COc1ccccc1CNC(=O)C[C@@H]1C[C@H]2c3cc(NC(=O)c4ccc5c(c4)OCO5)ccc3O[C@H]2[C@H](CO)O1 | active | inactive | inactive |
| C[C@@H]1CN([C@@H](C)CO)C(=O)c2cc(NS(=O)(=O)c3cccs3)ccc2O[C@@H](C)CCCCO[C@H]1CN(C)S(=O)(=O)c1ccc(Cl)cc1 | inactive | active | inactive |
| Nc1ncnc2c1ncn2[C@H]1O[C@@H](CO)C[C@@H]1O | inactive | inactive | inactive |
| OC[C@@H](O)[C@@H](O[C@@H]1O[C@H](CO)[C@@H](O)[C@H](O)[C@H]1O)[C@H](O)[C@@H](O)CO | inactive | inactive | inactive |
| C[C@@H]1CCCCO[C@@H](CN(C)C(=O)Nc2ccccc2)[C@@H](C)CN([C@@H](C)CO)C(=O)c2cc(NC(=O)NC3CCCCC3)ccc2O1 | inactive | inactive | inactive |
| COc1ccc(cc1)CN1CC[C@]2(CC1)CN([C@H](CO)c1[nH]c3cc(ccc3c12)OC)C(=O)Nc1ccc(cc1)F | inactive | active | inactive |
| Cc1noc(C)c1S(=O)(=O)Nc1cccc2c1O[C@H](CN(C)Cc1ccc(-c3ccccc3)cc1)[C@H](C)CN([C@H](C)CO)C2=O | inactive | inactive | inactive |
| Cc1noc(C)c1NC(=O)Nc1ccc2c(c1)C(=O)N([C@H](C)CO)C[C@H](C)[C@@H](CN(C)C(=O)c1ccccc1)OCCCC[C@@H](C)O2 | inactive | inactive | inactive |
| OCCC12CC3CC(CC(C3)C1)C2 | inactive | inactive | inactive |
| COC1C(=O)C2(C)C(OC)CC3OCC3(OC(C)=O)C2C(OC(=O)c2ccccc2)C2(O)CC(OC(=O)C(O)C(NC(=O)OC(C)(C)C)c3ccccc3)C(C)=C1C2(C)C (centres undefined) | inactive | active | inactive |
| C[C@@H]1CN([C@H](C)CO)C(=O)c2ccccc2-c2ccccc2CO[C@@H]1CN(C)C(=O)c1cc(Cl)cc(Cl)c1 | inactive | inactive | inactive |
| C[C@@H]1CCCCO[C@@H](CN(C)CC2CCCCC2)[C@@H](C)CN([C@H](C)CO)C(=O)c2cc(NC(=O)Nc3ccccc3)ccc2O1 | inactive | active | inactive |
| COc1ccc(NC(=O)N(C)C[C@@H]2OCCCC[C@@H](C)Oc3ccc(NC(=O)c4ccncc4)cc3C(=O)N([C@@H](C)CO)C[C@H]2C)cc1 | inactive | inactive | inactive |
| C[n+]1ccccc1C=NO.[Cl-] | inactive | inactive | inactive |
